Source: the supplement of paper PMC9446081
Screen size: about 39,000 compounds; about 220 (0.56%) showed activity. The list shows a part of the results.

Test system: Escherichia coli K-12 BW25113
Test: relative growth (OD600 normalised to plate interquartile mean) (fraction); higher = less growth inhibition, active = 0.2 or less
Details: 50 µM; LB; incubation time: overnight (16-24 h)
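Note: static incubation at 37 °C against the wild-type strain, values averaged over two biological replicates.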

COc1ccc(-c2cc(=O)c3c(O)c(OC)c(OC)c(OC)c3o2)cc1OC was tested. Which relative growth did it give?
Its relative growth is inactive: 1.11.

Which relative growth does the source give for CCCCCCCCCCCCCCCCCCOC[C@H](COP(=O)(O)O[C@H]1[C@@H](O)[C@@H](O)[C@@H](O)C[C@@H]1OC)OC here?
Its relative growth is inactive: 0.807.

With C[C@H](CO)N1C[C@H](C)[C@H](CN(C)CC2CCCCC2)Oc2ccc(NC(=O)CCCCCC(=O)Nc3ccccc3N)cc2CC1=O as the molecule, how does the relative growth read?
The relative growth was inactive: 0.978.

C[C@@H]1CN([C@@H](C)CO)C(=O)c2cc(NC(=O)Nc3ccc4c(c3)OCO4)ccc2O[C@@H](C)CCCCO[C@H]1CN(C)C(=O)C1CCCCC1 was tested. Which relative growth did it give?
Its relative growth is inactive: 0.965.

How did the relative growth turn out when O=C(C[C@@H]1CC[C@@H]2[C@H](COC[C@H](O)CN2C(=O)c2ccncc2)O1)NCc1ccc(-c2ccccc2)cc1 was run?
The relative growth was inactive: 0.917.

For CCCNC(=O)N1C[C@@H](O)COC[C@@H]2O[C@@H](CC(=O)NCc3ccncn3)CC[C@H]21, which relative growth is on record?
The relative growth was inactive: 0.989.

Which relative growth does the source give for NNC(=O)C1CCCC1 here?
Its relative growth is inactive: 0.998.

Which relative growth does the source give for CCO[C@H]1OC(C(=O)N2CCOCC2)=C[C@@H](c2ccccc2)[C@@H]1CCCOC(=O)NCCCCCC(=O)NO here?
The relative growth was inactive: 0.983.

Which relative growth does the source give for Cc1cc(C(=O)Nc2cccc3c2O[C@H](CN(C)C(=O)NC2CCCCC2)[C@H](C)CN([C@H](C)CO)C3=O)n(C)n1 here?
Its relative growth is inactive: 1.

With C[C@@H]1CCCCO[C@@H](CN(C)S(=O)(=O)c2cn(C)cn2)[C@@H](C)CN([C@H](C)CO)C(=O)c2cc(NC(=O)c3ccncc3)ccc2O1 as the molecule, how does the relative growth read?
The relative growth was inactive: 1.02.

Which relative growth does the source give for COc1ccc(CN(C)C[C@@H]2Oc3ccc(NC(=O)CCCN(C)C)cc3C(=O)N([C@@H](C)CO)C[C@H]2C)cc1 here?
Its relative growth is inactive: 1.01.

How did the relative growth turn out when O=P(O)(O)C(Sc1ccc(Cl)cc1)P(=O)(O)O was run?
The relative growth was inactive: 0.973.

For C[C@@H]1CN([C@H](C)CO)C(=O)c2cc(NC(=O)Nc3cccc4ccccc34)ccc2O[C@H]1CN(C)S(=O)(=O)c1ccccc1, which relative growth is on record?
Its relative growth is inactive: 1.02.

With COc1ccc(-c2ccccn2)cc1 as the molecule, how does the relative growth read?
The relative growth was inactive: 0.987.

Which relative growth does the source give for Cc1noc(C)c1S(=O)(=O)N(C)C[C@@H]1OCCCC[C@@H](C)Oc2ccc(NC(=O)Nc3ccc(C(F)(F)F)cc3)cc2C(=O)N([C@H](C)CO)C[C@H]1C here?
Its relative growth is inactive: 0.998.

For C[C@H](CO)N1C[C@H](C)[C@H](CN(C)C(=O)Nc2ccc(C(F)(F)F)cc2)Oc2ccc(NC(=O)Cc3ccccc3)cc2CC1=O, which relative growth is on record?
Its relative growth is inactive: 0.985.

How did the relative growth turn out when C[C@H](O)C#Cc1cnc2c(c1)C(=O)N([C@@H](C)CO)C[C@H](C)[C@@H](CN(C)C(=O)CN1CCOCC1)O2 was run?
The relative growth was inactive: 0.985.

Which relative growth does the source give for CC1=CC(=O)c2ccccc2C1=O here?
Its relative growth is inactive: 0.786.

How did the relative growth turn out when C[C@@H]1CN([C@@H](C)CO)C(=O)c2cc(NC(=O)c3ccncc3)ccc2O[C@@H](C)CCCCO[C@@H]1CN(C)CC1CCCCC1 was run?
Its relative growth is inactive: 1.

Which relative growth does the source give for C[C@@H]1CN([C@H](C)CO)C(=O)CCCn2nncc2CO[C@@H]1CN(C)S(=O)(=O)c1cccc(C#N)c1 here?
The relative growth was inactive: 1.

For O=C(C[C@@H]1CC[C@@H](NC(=O)CN2CCOCC2)[C@H](CO)O1)NCCc1ccccc1, which relative growth is on record?
The relative growth was inactive: 0.994.

For Cc1ccc(S(=O)(=O)Nc2ccc3c(c2)C(=O)N([C@H](C)CO)C[C@@H](C)[C@@H](CN(C)S(=O)(=O)c2ccc(F)cc2)OCCCC[C@@H](C)O3)cc1, which relative growth is on record?
The relative growth was inactive: 1.01.

C[C@H](CO)N1C[C@H](C)[C@@H](CN(C)Cc2ccc(C(=O)O)cc2)OCCCC[C@H](C)Oc2ccc(NC(=O)Cc3ccccc3)cc2C1=O was tested. Which relative growth did it give?
The relative growth was inactive: 0.978.

With COc1ccccc1CNC(=O)C[C@@H]1C[C@H]2c3cc(NS(=O)(=O)c4ccc(F)cc4)ccc3O[C@H]2[C@H](CO)O1 as the molecule, how does the relative growth read?
Its relative growth is inactive: 0.83.

How did the relative growth turn out when C[C@@H]1CN([C@@H](C)CO)S(=O)(=O)c2ccc(C#CCC3CCCC3)cc2O[C@H]1CN(C)C(=O)c1cnccn1 was run?
The relative growth was inactive: 1.04.

Which relative growth does the source give for COc1ccc(NC(=O)N(C)C[C@@H]2Oc3ccc(NC(=O)CCCCCC(=O)Nc4ccccc4N)cc3C(=O)N([C@H](C)CO)C[C@H]2C)cc1 here?
The relative growth was inactive: 0.982.

C[C@H](CO)N1C[C@H](C)[C@@H](CN(C)Cc2ccc(Oc3ccccc3)cc2)Oc2ccc(NC(=O)C3CC3)cc2CC1=O was tested. Which relative growth did it give?
Its relative growth is inactive: 0.977.

O=C(C[C@@H]1CC[C@@H]2[C@H](COC[C@H](O)CN2S(=O)(=O)c2ccc(F)cc2)O1)N1CCc2ccccc2C1 was tested. Which relative growth did it give?
The relative growth was inactive: 0.997.

Which relative growth does the source give for C[C@@H]1CN([C@H](C)CO)S(=O)(=O)c2ccc(C#Cc3ccccc3)cc2O[C@H]1CN(C)S(=O)(=O)c1ccccc1F here?
Its relative growth is inactive: 1.03.

COc1ccc(NC(=O)N(C)C[C@@H]2OCCCC[C@H](C)Oc3ccc(NS(=O)(=O)c4ccc(Cl)cc4)cc3C(=O)N([C@H](C)CO)C[C@H]2C)cc1 was tested. Which relative growth did it give?
The relative growth was inactive: 1.01.

For NCCCc1ccc2c(c1)OCO2, which relative growth is on record?
Its relative growth is inactive: 0.913.

For O=C(CN1CCOCC1)NCC[C@H]1CC[C@H](NC(=O)c2ccc3c(c2)OCO3)[C@H](CO)O1, which relative growth is on record?
Its relative growth is inactive: 1.03.

C[C@@H]1CCCCO[C@@H](CN(C)C(=O)Nc2ccc3c(c2)OCO3)[C@@H](C)CN([C@@H](C)CO)C(=O)c2cc(NC(=O)Nc3cccc4ccccc34)ccc2O1 was tested. Which relative growth did it give?
Its relative growth is inactive: 1.04.

Cn1cnc(S(=O)(=O)N[C@@H]2CC[C@H](CC(=O)N3CCN(c4ccccc4)CC3)O[C@H]2CO)c1 was tested. Which relative growth did it give?
The relative growth was inactive: 1.01.

Cc1noc(C)c1NC(=O)Nc1ccc2c(c1)C(=O)N([C@H](C)CO)C[C@H](C)[C@H](CN(C)S(=O)(=O)c1cccs1)OCCCC[C@H](C)O2 was tested. Which relative growth did it give?
Its relative growth is inactive: 1.02.

How did the relative growth turn out when C[C@@H](O)CN1CCN(S(=O)(=O)C2CC2)CC1 was run?
The relative growth was inactive: 0.977.

Which relative growth does the source give for CCCC(=O)Nc1ccc2c(c1)OC[C@@H](C)N(S(=O)(=O)c1cn(C)cn1)C[C@H](C)[C@@H](OC)CN(C)C2=O here?
The relative growth was inactive: 0.968.

How did the relative growth turn out when CC(C)[C@H](NC(=O)[C@H](CC(=O)O)NC(=O)[C@H](CCCCN)NC(=O)[C@@H](N)CCCNC(=N)N)C(=O)N[C@@H](Cc1ccc(O)cc1)C(=O)O was run?
Its relative growth is inactive: 1.

With C[C@@H]1CN([C@H](C)CO)C(=O)c2cc(NC(=O)c3ccncc3)ccc2O[C@H]1CN(C)S(=O)(=O)c1cccs1 as the molecule, how does the relative growth read?
Its relative growth is inactive: 1.01.

How did the relative growth turn out when C=CC(C)(O)CCC1C(C)(O)CCC2C(C)(C)CCCC21C (centres undefined) was run?
Its relative growth is inactive: 0.953.

Which relative growth does the source give for CO[C@@H]1CN(C)C(=O)c2cc(NS(=O)(=O)c3cn(C)cn3)ccc2OC[C@H](C)N(CC2CC2)C[C@@H]1C here?
The relative growth was inactive: 1.03.

For O=C(O)CCC(=O)O, which relative growth is on record?
The relative growth was inactive: 0.976.

For Cc1noc(C)c1NC(=O)N(C)C[C@@H]1OCCCC[C@H](C)Oc2ccc(NC(=O)C3CCCCC3)cc2C(=O)N([C@@H](C)CO)C[C@H]1C, which relative growth is on record?
Its relative growth is inactive: 0.983.

C[C@H](CO)N1C[C@H](C)[C@@H](CN(C)Cc2ccc3c(c2)OCO3)OCCCC[C@H](C)Oc2ccc(NC(=O)NC3CCCCC3)cc2C1=O was tested. Which relative growth did it give?
The relative growth was inactive: 0.995.

CCCCOC(=O)c1ccc(O)cc1 was tested. Which relative growth did it give?
The relative growth was inactive: 1.05.

How did the relative growth turn out when C[C@@H]1CCCCO[C@@H](CN(C)C(=O)c2ccccc2)[C@@H](C)CN([C@@H](C)CO)C(=O)c2cc(NS(=O)(=O)c3cccs3)ccc2O1 was run?
The relative growth was inactive: 1.01.

C[C@@H]1CCCCO[C@H](CN(C)C(=O)c2ccccc2)[C@@H](C)CN([C@@H](C)CO)C(=O)c2cc(NC(=O)Nc3ccc4c(c3)OCO4)ccc2O1 was tested. Which relative growth did it give?
The relative growth was inactive: 1.01.

For C[C@@H]1CN([C@@H](C)CO)C(=O)c2c(c3ccccc3n2C)-c2ccccc2CO[C@H]1CN(C)Cc1ccc2c(c1)OCCN2C, which relative growth is on record?
Its relative growth is inactive: 0.998.

With Cc1c2c(nn1C)CSCc1cc(n(C)n1)CSc1cc(c3ccccc3c1)OCCCc1c(C(=O)O)n(C)c3c-2c(Cl)ccc13 as the molecule, how does the relative growth read?
Its relative growth is inactive: 1.01.

How did the relative growth turn out when CC(=O)OCC[N+](C)(C)C.[Cl-] was run?
The relative growth was inactive: 1.18.

For C[C@@H]1CN([C@H](C)CO)C(=O)c2cc(NC(=O)NC3CCCCC3)ccc2O[C@@H](C)CCCCO[C@H]1CN(C)C(=O)Nc1ccc(C(F)(F)F)cc1, which relative growth is on record?
Its relative growth is inactive: 1.02.

With C[C@H](CO)N1C[C@H](C)[C@H](CN(C)C(=O)Nc2ccc(C(F)(F)F)cc2)Oc2c(NC(=O)CCCCCC(=O)Nc3ccccc3N)cccc2C1=O as the molecule, how does the relative growth read?
The relative growth was inactive: 0.994.

Which relative growth does the source give for COC[C@@H]1CN(C(=O)c2cscn2)N1C here?
The relative growth was inactive: 0.996.

For C[C@H](CO)N1C[C@H](C)[C@@H](CN(C)C(=O)C2CC2)OCc2cn(nn2)CCCC1=O, which relative growth is on record?
Its relative growth is inactive: 1.03.

C[C@H]1CCc2cc(F)ccc2N1 was tested. Which relative growth did it give?
Its relative growth is inactive: 0.985.

For COc1ccc(CN2C[C@H](C)[C@@H](OC)CN(C)C(=O)c3ccc(NC(=O)c4nc5ccccc5s4)cc3OC[C@@H]2C)cc1, which relative growth is on record?
The relative growth was inactive: 0.993.

For CCS(=O)(=O)N[C@H]1C=C[C@@H](CC(=O)NCc2ccc(Cl)cc2)O[C@@H]1CO, which relative growth is on record?
The relative growth was inactive: 1.

For Cc1ccc(S(=O)(=O)Nc2ccc3c(c2)CC(=O)N([C@@H](C)CO)C[C@@H](C)[C@@H](CN(C)S(=O)(=O)c2ccc(F)cc2)O3)cc1, which relative growth is on record?
The relative growth was inactive: 0.885.

For COc1ccc2c3c([nH]c2c1)[C@@H](CO)N(Cc1nccs1)C[C@]13CCN(CC1)C(=O)C1CCOCC1, which relative growth is on record?
The relative growth was inactive: 1.03.

Which relative growth does the source give for CC(C)NC(=O)Nc1ccc2c(c1)CC(=O)N([C@@H](C)CO)C[C@@H](C)[C@@H](CN(C)Cc1ccc(C(=O)O)cc1)O2 here?
Its relative growth is inactive: 1.01.

With Cc1ncc(COP(=O)(O)O)c(C=O)c1O as the molecule, how does the relative growth read?
The relative growth was inactive: 1.03.

Which relative growth does the source give for COc1ccc(S(=O)(=O)Nc2ccc3c(c2)[C@H]2C[C@H](CC(=O)NCC4CC4)O[C@@H](CO)[C@H]2O3)cc1 here?
Its relative growth is inactive: 0.977.

CCCc1nc2c(C)cc(-c3nc4ccccc4n3C)cc2n1Cc1ccc(-c2ccccc2C(=O)O)cc1 was tested. Which relative growth did it give?
Its relative growth is inactive: 0.907.

Which relative growth does the source give for C[C@@H]1CCCCO[C@H](CN(C)Cc2ccncc2)[C@H](C)CN([C@@H](C)CO)C(=O)c2cc(NC(=O)Nc3ccc(F)cc3)ccc2O1 here?
Its relative growth is inactive: 0.995.
